Laboratory results: publication PMC7673538 (PLoS Biology, 2020)

Columns and labels:
Rluc-CV-B3 = assay type: cell-based
[1] = system: rat primary cortical cultures
[2] = system: rat primary cortical cultures; assay: MEA recordings of spontaneous neuronal activity in rat primary cortical cultures; conditions: 10µM; 0.5h

Structure (SMILES): COc1ccc(N(Cc2ccc(F)cc2)C(=O)c2ccco2)cc1 [Compound 1, N-(4-fluorobenzyl)-N-(4-methoxyphenyl)furan-2-carboxamide]
- resistance conferred by 2C mutation F190L (in words) (Rluc-CV-B3; Rluc-CV-B3 2C[F190L], 8 hours post infection): conferred compound 1 resistance

Structure (SMILES): COc1ccc(N(Cc2ccc(F)cc2)C(=O)c2cc[nH]c2)cc1 [Compound 12a, N-(4-Fluorobenzyl)-N-(4-methoxyphenyl)-1H-pyrrole-3-carboxamide]
- effect on MSR, MBR and MNBR (in words) [1]: without effect

Structure (SMILES): O=C(c1cc[nH]c1)N(Cc1ccc(F)cc1)c1ccccc1 [Compound 12b, N-(4-Fluorobenzyl)-N-phenyl-1H-pyrrole-3-carboxamide]
- effect on MSR, MBR and MNBR (in words) [1]: without effect

Structure (SMILES): O=C(c1ccco1)N(Cc1ccc(F)cc1)c1ccccc1 [Compound 19b, N-(4-Fluorobenzyl)-N-phenylfuran-2-carboxamide]
- effect on MSR, MBR and MNBR (in words) [1]: without effect

Structure (SMILES): O=C(c1ccco1)N(Cc1ccc(C(F)(F)F)cc1)c1ccccc1 [Compound 19d, N-phenyl-N-(4-(trifluoromethyl)benzyl)furan-2-carboxamide]
- resistance conferred by 2C mutations F190L/H243R (in words) (Rluc-CV-B3; Rluc-CV-B3 2C[F190L/H243R], Fig 4B): high level of resistance
- resistance conferred by 2C mutation H243R (in words) (Rluc-CV-B3; Rluc-CV-B3 2C[H243R], Fig 4B): did not provide any resistance
- effect on MSR, MBR and MNBR (in words) [1]: without effect
- Number of Bursts [2]: 118.7% of control
- Number of Network Bursts [2]: 124.8% of control
- Number of Spikes [2]: 84.5% of control
